Laboratory results as given in PubChem BioAssay (NCATS).
This list was built around the results that the source calls inconclusive (neither active nor inactive); the mix of calls is not that of the screen. For some assays here: No potency is given beside an inconclusive call; the fits are too rough. For some assays here: “Side channel” marks fits to a control or component signal instead of the main read-out. The source made the active and inactive calls. Unless noted, calls follow the shape of the dose curve; as a rule, active = well fitted curve in the direction sought with a large enough effect; inconclusive = small, poorly fitted or top-dose-only effect, or another doubt; inactive = no such curve, though single readings can be large; an effect the other way counts as inactive or inconclusive.

Columns and labels:
[1] = biological target: Ubiquitin carboxyl-terminal hydrolase 1 (Homo sapiens) (UniProt O94782); assay: Inhibitors of USP1/UAF1: Pilot qHTS (AID 504865); also: potency is read from the fitted curve at half-maximal effect;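 also: rhodamine fluorescence freed from ubiquitin-rhodamine substrate followed over time; nearly all actives have a fitted effect of over 35% in size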; as to activity change, negative = inhibition: top concentration of the series differs between compounds; % is scaled to controls: 0 for no effect and ±100 for the full control effect
How it was run: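 Enzyme-free wells gave the negative control, while test wells held 1nM USP1/UAF1 preincubated with compound for 15 min at room temperature. Ub-Rho at 150nM final started the reaction, and fluorescence at 480/540 nm was recorded kinetically.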

[2] = biological target: Bile acid receptor (Homo sapiens) (UniProt Q96RI1); assay: qHTS assay for small molecule agonists of farnesoid X receptor signaling (AID 588527; calls by dose curve;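 also: 0% = vehicle basal and 100% = reference agonist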); details: HEK293T FXR-UAS-bla, beta-lactamase ratio, 16 h; activation: stronger effect = higher value
How it was run: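 FXR-UAS-bla HEK293T, 10% dialyzed FBS; cpds up to 92 uM titration, 16 h 37 C; CCF4 dye 2 h RT; fluorescence. Normalized to chenodeoxycholic acid 100 uM (100%) and DMSO (0%); Hill fit gives EC50, efficacy.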

[3] = biological target: Peroxisome proliferator-activated receptor delta (Homo sapiens) (UniProt Q03181); assay: qHTS assay for small molecule antagonists of peroxisome proliferator-activated receptor delta signaling (AID 588535; active = well fitted inhibition curve with a large enough effect in the signal ratio, with a control signal flat, not every such curve was filed as active; inconclusive = small, poorly fitted or top-dose-only effect, or effect the other way, or a change in a side signal; inactive = no such curve, though single readings can be large or run the other way; the % refers to the signal ratio); details: HEK293T PPARd-UAS-bla, beta-lactamase FRET ratio, 18 h; activity change, negative = inhibition: at 76.7 µM (top of the series) unless noted
How it was run: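 GeneBLAzer PPAR-delta-UAS-bla HEK293T cells in medium with 2% charcoal/dextran FBS were preincubated 5 hrs at 37 C, then given compounds, incubated 18 hrs at 37 C, and read by CCF4 beta-lactamase fluorescence; IC50 from Hill fits.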

[4] = biological target: Peroxisome proliferator-activated receptor gamma (Homo sapiens) (UniProt P37231); assay: qHTS assay for small molecule antagonists of peroxisome proliferator-activated receptor gamma signaling (AID 588537; active = well fitted inhibition curve with a large enough effect in the signal ratio, with a control signal flat, not every such curve was filed as active; inconclusive = small, poorly fitted or top-dose-only effect, or effect the other way, or a change in a side signal; the % refers to the signal ratio;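 also: reporter cells co-stimulated with 50 nM rosiglitazone agonist during compound treatment; % of control where 0% means no effect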); details: HEK293 PPARg-UAS-bla, beta-lactamase ratio, antagonist mode; activity, negative = inhibition: at 76.8 µM (top of the series)
How it was run: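 PPAR-gamma-UAS-bla HEK293 cells (3000/well, 1% charcoal/dextran-stripped FBS) were preincubated 6-6.5 h at 37 C, given titrated compounds, then stimulated with 50 nM rosiglitazone for 16 h. Beta-lactamase activity was read with CCF4 dye; IC50 came from Hill fits.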

[5] = biological target: Vitamin D3 receptor (Homo sapiens) (UniProt P11473); assay: qHTS assay for small molecule agonists of vitamin D receptor signaling (AID 588543; calls by dose curve; also: potency is read from the fitted curve at half-maximal effect;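 as to activation: 0% = DMSO basal and 100% = reference agonist control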); details: HEK293T VDR-UAS-bla, beta-lactamase ratio, 16 h; activation: at 76.8 µM (top of the series)
How it was run: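 Measured: β-lactamase reporter activity (CCF4, 405 nm excitation, 460/530 nm emission) in HEK293T VDR-UAS-bla cells after 16 h compound exposure at 37 °C. Normalization against 50 nM 1α,25-dihydroxyvitamin D3 and DMSO; Hill-fit EC50.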

[6] = biological target: Retinoic acid receptor RXR-alpha (Homo sapiens) (UniProt P19793); assay: qHTS assay for small molecule agonists of retinoid X receptor alpha signaling (AID 588544; calls by dose curve;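 also: 0% = DMSO basal wells and 100% = reference agonist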); details: HEK293T RXRa-UAS-bla, beta-lactamase reporter, 18 h; activation: at 76.7 µM (top of the series) unless noted
[7] = biological target: Retinoic acid receptor RXR-alpha (Homo sapiens) (UniProt P19793); assay: qHTS assay for small molecule antagonists of retinoid X receptor alpha signaling (AID 588546; active = well fitted inhibition curve with a large enough effect in the signal ratio, with a control signal flat, not every such curve was filed as active; inconclusive = small, poorly fitted or top-dose-only effect, or effect the other way, or a change in a side signal; inactive = no such curve, though single readings can be large or run the other way; the % refers to the signal ratio; also: potency is read from the fitted curve at half-maximal effect); details: HEK293T RXRa-UAS-bla, beta-lactamase ratio, antagonist mode
How it was run: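 Beta-lactamase reporter inhibition, read as CCF4 fluorescence ratio (ex 405, em 460/530 nm) after 2 h at RT. HEK293T UAS-bla cells, 2500/well, were stimulated with 9-cis-RA at 500 or 100 nM final alongside test compound for 18 h at 37 C.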

[8] = biological target: Thyroid hormone receptor beta (Homo sapiens) (UniProt P10828); assay: qHTS assay for small molecule antagonists of thyroid hormone receptor beta signaling (AID 588547; active = well fitted inhibition curve with a large enough effect in the signal ratio, with a control signal flat, not every such curve was filed as active; inconclusive = small, poorly fitted or top-dose-only effect, or effect the other way, or a change in a side signal; the % refers to the signal ratio; also: potency is read from the fitted curve at half-maximal effect;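 as to activity change % (negative = inhibition): cells stimulated with 0.4 nM T3 agonist during compound exposure; % is scaled to controls: 0 for no effect and ±100 for the full control effect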); details: TR-UAS-bla HEK293, beta-lactamase ratio, antagonist mode, 18 h
How it was run: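 TR-UAS-bla GripTite HEK293 cells in 2% charcoal/dextran FBS medium were preincubated 4 h at 37 C, given compound (0.59 nM to 92 uM) plus 0.4 nM T3 (final) for 18 h, then CCF4 for 2 h at RT; Hill fit gave IC50.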

[9] = biological target: Mitogen-activated protein kinase 10 (Mus musculus) (UniProt Q61831); assay: JNK3 AlphaScreen Assay (AID 530; active = well fitted curve in either direction with a large enough effect, not every such curve was filed as active; inconclusive = small, poorly fitted or top-dose-only effect, or another doubt;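 also: kinase came from lysate of stimulated human HepG2 cells; signal reports phosphorylation of biotinylated GST-cJun 1-79 at Ser73 with 10 µM ATP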; also: potency is read from the fitted curve at half-maximal effect; as to activity change, negative = inhibition: % is scaled to controls: 0 for no effect and ±100 for the full control effect); details: JNK3 lysate, c-Jun phosphorylation; activity change, negative = inhibition: at 57.1 µM (top of the series)
How it was run: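 JNK3 came from HepG2 lysates pre-activated with IL-1beta and TNF-alpha and phosphorylated biotinylated GST-cJun (1-79) at 10 uM ATP, pH 7.6, room temperature. Compounds were titrated. AlphaScreen signal used anti-phospho-cJun (Ser73) antibody.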

[10] = biological target: Androgen receptor (Homo sapiens) (UniProt P10275); assay: qHTS assay for small molecule antagonists of androgen receptor signaling (AID 588516; active = well fitted curve in the direction sought with a large enough effect in the signal ratio, with a control signal flat, not every such curve was filed as active; inconclusive = small, poorly fitted or top-dose-only effect, or effect the other way, or a change in a side signal; inactive = no such curve, though single readings can be large or run the other way; the % refers to the signal ratio; also: % is scaled to controls: 0 for no effect and ±100 for the full control effect); details: AR-UAS-bla HEK293, beta-lactamase ratio, antagonist mode, 16 h; activity change, negative = inhibition: at 76.8 µM (top of the series)
How it was run: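 Antagonist-mode qHTS: inhibition of R1881 (10 nM)-driven beta-lactamase expression in GripTite HEK 293 cells is measured after 16 h; values are Hill-derived IC50s normalized between R1881 and DMSO wells.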

[11] = qHTS assay for small molecule agonists of the antioxidant response element (ARE) signaling pathway (AID 651741; active = well fitted activation curve with a large enough effect in the signal ratio; inconclusive = small, poorly fitted or top-dose-only effect, or effect the other way, or a change in a side signal; the % refers to the signal ratio; also: potency is read from the fitted curve at half-maximal effect); details: HepG2 ARE-bla reporter, beta-lactamase FRET ratio, 16 h; activation: at 96 µM (top of the series) unless noted
How it was run: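 ARE-bla HepG2 cells (beta-lactamase reporter under ARE control) were plated at 2,000 cells/well, preincubated 5 h at 37 C/5% CO2, then treated with DMSO-dissolved compounds for 16 h at 37 C; LiveBLAzer B/G FRET substrate added, fluorescence read after 2 h at room temperature.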

[12] = biological target: Cytochrome P450 3A4 (Homo sapiens) (UniProt P08684); assay: qHTS Assay for Inhibitors and Substrates of Cytochrome P450 3A4 (AID 884); also: potency is read from the fitted curve at half-maximal effect; nearly all actives have a fitted effect of over 50% in size
How it was run: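 20 nM human CYP3A4 with 25 uM Luciferin-PPXE (at KM) in 200 mM KPO4, preincubated 10 min with compound; NADPH regeneration started a 60 min RT reaction. Luciferin detected by luminescence, normalized to 57 uM ketoconazole as full inhibition.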

[13] = Confirmation and Secondary Assay for Modulators of Hemoglobin Beta Chain Splicing at IVS2 654 locus (AID 910);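 also: per-well total GFP intensity by laser scanning cytometry after 2-day treatment; % of control where 0% means no effect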
How it was run: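 HeLa cells stably carrying EGFP interrupted by mutant beta-globin IVS2-654 intron (CMV-driven) were treated with compound for 2 days at 37C; corrected splicing was scored as total peak GFP intensity per well (488 nm excitation, 500-520 nm emission).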

[14] = biological target: Muscarinic acetylcholine receptor M1 (Rattus norvegicus) (UniProt P08482); assay: qHTS Assay for Antagonists of Acetylcholine Muscarinic M1 Receptor: Measurement of IP-One Response (AID 944); also: potency is read from the fitted curve at half-maximal effect; nearly all actives have a fitted effect of over 75% in size
[15] = S16 Schwann cell viability assay (CellTiter-Glo assay) (AID 624031); details: S16 rat Schwann cells viability, 24 h;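 also: native untransfected S16 rat Schwann cells; cellular ATP luminescence as a viability measure; potency is read from the fitted curve at half-maximal effect; nearly all actives have a fitted effect of over 70% in size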
How it was run: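 Following overnight culture in 10% FBS DMEM, parental S16 rat Schwann cells are dosed for 24 h at 37 °C. Viability is read as CellTiter-Glo luminescence and expressed as % activity relative to DMSO (0%) and no-cell wells.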

[16] = S16 Schwann cell PMP22 intronic element firefly luciferase assay (AID 624032); also: potency is read from the fitted curve at half-maximal effect; nearly all actives have a fitted effect of over 30% in size
How it was run: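 Rat S16 Schwann cells stably carrying a PMP22 intronic element-driven Fluc reporter were seeded overnight, then exposed to compounds for 24 h at 37 °C. Luminescence was normalized to PTC124 (positive control) and DMSO (0% activity).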

[17] = S16 Schwann cell PMP22 intronic element beta-lactamase assay (AID 624044; calls by dose curve; also: potency is read from the fitted curve at half-maximal effect; nearly all actives have a fitted effect of over 15% in size); details: S16 rat Schwann cells, PMP22 element beta-lactamase FRET, 24 h; ratio activity, negative = inhibition: at 17.1 µM (top of the series)
How it was run: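 Rat S16 Schwann cells with beta-Lac driven by a PMP22 intronic element, compound-treated 24 h at 37 °C. LiveBLAzer FRET B/G read: 460 nm normalized to potassium clavulanate vs DMSO; 535 nm FRET as viability; concentration-effect curves classified.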

[18] = qHTS Assay for Identifying Gametocytocidal Compounds (AID 743244); also: potency is read from the fitted curve at half-maximal effect; details: P. falciparum 3D7 stage III-V gametocytes, alamarBlue, 72 h; max response: stronger effect = lower value
How it was run: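 Stage III–V gametocytes of P. falciparum 3D7 were seeded at 20,000 cells/well onto pre-dispensed compounds. After 72 h, 37 °C, 5% CO2, alamarBlue was added for another 24 h.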

[19] = qHTS Assay for Identification of Small Molecule Agonists for Hypoxia Response Element Signaling Pathway (AID 914; active = well fitted activation curve with a large enough effect in the signal ratio, with a control signal flat, not every such curve was filed as active; inconclusive = small, poorly fitted or top-dose-only effect, or effect the other way, or a change in a side signal; the % refers to the signal ratio; also: potency is read from the fitted curve at half-maximal effect); details: ME-180 (cervical carcinoma) HRE-bla reporter, beta-lactamase ratio, CoCl2, 17 h; activation: stronger effect = higher value
How it was run: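 HRE-bla ME-180 assay for agonist-like enhancement of an EC50 CoCl2 stimulus: 17 h at 37 degrees Celsius, CCF4 for 2.5 h, ratiometric 460/530 nm signal converted to %Activity and fitted to AC50.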
Tags tell the direction and shape of the fitted curve or compound fluorescence and quenching.

UniProt O94782, sequence (O94782 whole entry, looked up): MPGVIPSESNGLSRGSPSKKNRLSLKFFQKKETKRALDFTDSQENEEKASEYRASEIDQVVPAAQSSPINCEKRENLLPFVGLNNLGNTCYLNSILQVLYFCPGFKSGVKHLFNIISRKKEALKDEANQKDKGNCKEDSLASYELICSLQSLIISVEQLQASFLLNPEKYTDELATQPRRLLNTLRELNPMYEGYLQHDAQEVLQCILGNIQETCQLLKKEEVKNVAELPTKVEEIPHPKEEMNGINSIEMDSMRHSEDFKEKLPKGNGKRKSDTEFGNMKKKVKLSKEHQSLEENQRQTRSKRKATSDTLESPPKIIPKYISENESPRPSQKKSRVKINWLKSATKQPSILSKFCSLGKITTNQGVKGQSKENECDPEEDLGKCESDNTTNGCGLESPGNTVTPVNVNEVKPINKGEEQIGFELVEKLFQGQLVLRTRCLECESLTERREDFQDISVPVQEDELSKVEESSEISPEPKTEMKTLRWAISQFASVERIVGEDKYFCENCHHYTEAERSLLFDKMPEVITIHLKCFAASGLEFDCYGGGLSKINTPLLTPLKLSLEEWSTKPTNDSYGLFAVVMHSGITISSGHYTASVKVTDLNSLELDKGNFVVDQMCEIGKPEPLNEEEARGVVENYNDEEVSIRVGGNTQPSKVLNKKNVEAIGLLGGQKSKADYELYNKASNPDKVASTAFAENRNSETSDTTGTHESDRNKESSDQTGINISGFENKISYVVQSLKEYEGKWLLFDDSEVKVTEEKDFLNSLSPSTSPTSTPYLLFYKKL
UniProt P10828, sequence (P10828 whole entry, looked up): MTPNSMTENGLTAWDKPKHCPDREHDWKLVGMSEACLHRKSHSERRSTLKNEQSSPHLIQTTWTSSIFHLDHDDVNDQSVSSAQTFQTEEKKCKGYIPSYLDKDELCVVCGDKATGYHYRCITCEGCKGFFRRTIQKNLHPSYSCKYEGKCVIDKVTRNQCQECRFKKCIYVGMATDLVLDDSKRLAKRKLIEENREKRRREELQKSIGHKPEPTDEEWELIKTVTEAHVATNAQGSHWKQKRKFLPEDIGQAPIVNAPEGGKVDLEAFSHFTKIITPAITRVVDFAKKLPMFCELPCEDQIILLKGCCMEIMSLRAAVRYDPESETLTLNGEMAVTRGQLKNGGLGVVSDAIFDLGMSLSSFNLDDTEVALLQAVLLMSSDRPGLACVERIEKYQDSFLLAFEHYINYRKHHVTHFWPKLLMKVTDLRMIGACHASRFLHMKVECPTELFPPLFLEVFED
UniProt P19793, sequence (P19793 whole entry, looked up): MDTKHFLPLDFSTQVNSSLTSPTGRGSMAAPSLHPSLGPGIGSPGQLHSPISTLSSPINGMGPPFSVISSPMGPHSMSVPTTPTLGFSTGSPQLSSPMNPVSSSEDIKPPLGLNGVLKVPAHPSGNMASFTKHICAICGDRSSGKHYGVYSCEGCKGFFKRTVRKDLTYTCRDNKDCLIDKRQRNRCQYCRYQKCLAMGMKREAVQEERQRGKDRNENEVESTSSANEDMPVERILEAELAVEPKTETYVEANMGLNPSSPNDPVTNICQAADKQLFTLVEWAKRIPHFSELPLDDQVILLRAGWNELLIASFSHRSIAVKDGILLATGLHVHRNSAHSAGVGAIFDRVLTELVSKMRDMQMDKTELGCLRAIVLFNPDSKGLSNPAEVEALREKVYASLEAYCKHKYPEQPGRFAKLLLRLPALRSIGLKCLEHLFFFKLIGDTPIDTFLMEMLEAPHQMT
UniProt P08684, sequence (P08684 whole entry, looked up): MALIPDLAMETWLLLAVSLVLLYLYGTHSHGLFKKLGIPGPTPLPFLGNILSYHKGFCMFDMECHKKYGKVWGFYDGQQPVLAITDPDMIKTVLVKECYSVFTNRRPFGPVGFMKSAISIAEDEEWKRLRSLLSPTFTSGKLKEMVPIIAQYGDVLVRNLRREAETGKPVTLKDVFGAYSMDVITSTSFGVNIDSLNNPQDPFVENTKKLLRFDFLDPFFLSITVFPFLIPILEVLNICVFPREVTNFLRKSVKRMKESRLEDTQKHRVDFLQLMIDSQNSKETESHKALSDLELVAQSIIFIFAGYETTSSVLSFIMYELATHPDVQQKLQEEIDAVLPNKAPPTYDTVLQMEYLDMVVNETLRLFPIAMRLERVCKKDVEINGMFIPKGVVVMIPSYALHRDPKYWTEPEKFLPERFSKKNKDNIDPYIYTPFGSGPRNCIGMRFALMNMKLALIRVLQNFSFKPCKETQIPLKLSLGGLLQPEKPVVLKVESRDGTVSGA
UniProt P10275, sequence (P10275 whole entry, looked up): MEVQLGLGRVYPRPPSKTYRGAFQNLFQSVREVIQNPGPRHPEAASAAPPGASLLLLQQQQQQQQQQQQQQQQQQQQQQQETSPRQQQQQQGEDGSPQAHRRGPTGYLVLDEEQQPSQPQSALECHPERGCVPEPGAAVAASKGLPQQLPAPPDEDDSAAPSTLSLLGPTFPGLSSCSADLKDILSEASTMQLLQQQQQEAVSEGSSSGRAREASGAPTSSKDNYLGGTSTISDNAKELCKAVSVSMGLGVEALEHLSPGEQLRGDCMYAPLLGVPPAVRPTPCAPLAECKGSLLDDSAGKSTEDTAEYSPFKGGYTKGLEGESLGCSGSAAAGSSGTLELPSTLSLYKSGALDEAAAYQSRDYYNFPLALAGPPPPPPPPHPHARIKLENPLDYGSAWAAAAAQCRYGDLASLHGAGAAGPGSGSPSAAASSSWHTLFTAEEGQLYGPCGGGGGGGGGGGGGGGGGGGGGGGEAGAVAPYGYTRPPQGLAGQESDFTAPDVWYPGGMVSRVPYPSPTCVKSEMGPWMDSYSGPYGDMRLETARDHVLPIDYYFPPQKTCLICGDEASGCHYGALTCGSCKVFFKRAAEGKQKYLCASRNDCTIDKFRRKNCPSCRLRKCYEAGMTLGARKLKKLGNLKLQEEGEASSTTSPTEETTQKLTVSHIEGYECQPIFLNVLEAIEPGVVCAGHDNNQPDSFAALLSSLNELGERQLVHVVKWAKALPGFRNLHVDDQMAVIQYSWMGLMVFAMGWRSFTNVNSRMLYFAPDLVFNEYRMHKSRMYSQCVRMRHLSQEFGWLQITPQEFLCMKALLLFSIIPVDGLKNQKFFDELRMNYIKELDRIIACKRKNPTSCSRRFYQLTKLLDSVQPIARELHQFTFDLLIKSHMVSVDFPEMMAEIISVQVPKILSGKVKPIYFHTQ
UniProt Q03181, sequence (Q03181 whole entry, looked up): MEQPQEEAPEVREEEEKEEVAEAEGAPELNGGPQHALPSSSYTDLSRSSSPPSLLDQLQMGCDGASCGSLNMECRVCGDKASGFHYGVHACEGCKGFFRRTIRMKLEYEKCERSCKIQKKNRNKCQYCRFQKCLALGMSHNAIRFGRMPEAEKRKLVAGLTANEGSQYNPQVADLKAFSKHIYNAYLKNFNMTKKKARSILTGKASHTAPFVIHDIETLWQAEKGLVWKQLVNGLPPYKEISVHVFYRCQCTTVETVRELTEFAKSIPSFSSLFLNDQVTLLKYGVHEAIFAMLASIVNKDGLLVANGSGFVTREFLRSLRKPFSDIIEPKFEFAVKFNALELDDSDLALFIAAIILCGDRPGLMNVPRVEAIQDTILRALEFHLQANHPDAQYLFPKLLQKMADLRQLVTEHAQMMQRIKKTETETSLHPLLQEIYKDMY
UniProt P08482, sequence (P08482 whole entry, looked up): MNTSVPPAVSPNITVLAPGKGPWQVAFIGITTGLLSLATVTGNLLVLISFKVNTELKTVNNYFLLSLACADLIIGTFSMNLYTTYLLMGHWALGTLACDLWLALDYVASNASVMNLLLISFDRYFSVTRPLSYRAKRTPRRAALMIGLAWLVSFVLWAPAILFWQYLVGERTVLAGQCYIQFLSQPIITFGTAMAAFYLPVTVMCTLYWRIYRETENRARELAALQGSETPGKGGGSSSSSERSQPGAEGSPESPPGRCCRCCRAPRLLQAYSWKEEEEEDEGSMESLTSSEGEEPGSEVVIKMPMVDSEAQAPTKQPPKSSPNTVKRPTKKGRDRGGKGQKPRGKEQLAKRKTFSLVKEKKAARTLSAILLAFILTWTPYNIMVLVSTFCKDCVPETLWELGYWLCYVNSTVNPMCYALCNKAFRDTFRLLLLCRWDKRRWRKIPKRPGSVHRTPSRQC

CCCCSP(=O)(SCCCC)SCCCC
Potency [1]: inactive
activation [2]: inconclusive: 28.2%
Potency [3]: inactive
Potency [4]: inactive
Potency [5]: inactive
activation [6]: inconclusive: -34.4%
Potency [7]: inconclusive [activator, partial curve, poor fit]
activity change % (negative = inhibition) [8]: inactive: -17.4%

N[C@]1(C(=O)O)CC[C@@H](C(=O)O)C1
Potency [9]: inconclusive [activator, full curve]

CCC(=O)Nc1ccc(Cl)c(Cl)c1
Potency [1]: inactive
activity change, negative = inhibition [10]: inconclusive: -35%
activity, negative = inhibition [4]: inconclusive: -4.05%
Potency [5]: inconclusive [side channel, falling, full curve, poor fit]
Potency [8]: inconclusive [side channel, falling, full curve, poor fit]
Potency [11]: inconclusive [activator, single point]

CC1=CCCC2C1(C)CCC(C)C2(C)CC/C(C)=C/C[n+]1cn(C)c2c(N)ncnc21 (centres undefined)
Potency [12]: active: 31.6 µM
Potency [13]: inactive
Potency [1]: inconclusive [inhibitor, partial curve, poor fit]

O=C(O)CNC(=O)[C@@H](CS)Cc1ccccc1
Potency [14]: inconclusive [inhibitor, partial curve, poor fit]
Potency [1]: inconclusive [inhibitor, single point]

COc1cc(-c2ccc(-[n+]3nc(-c4ccccc4)nn3-c3ccc([N+](=O)[O-])cc3)c(OC)c2)ccc1-[n+]1nc(-c2ccccc2)nn1-c1ccc([N+](=O)[O-])cc1
Potency [1]: inconclusive [inhibitor, partial curve, poor fit]
Potency [15]: active: 28.7 µM
Potency [16]: active: 14.4 µM
Potency [17]: active: 25.1 µM
Potency [18]: active: 5.62 µM

C=C[C@@H]1C[C@@]1(C)[C@@H](NP(=O)(c1ccccc1)c1ccccc1)c1ccccc1
Potency [9]: inactive

CNC[C@H](O)c1ccc(OC(=O)C(C)(C)C)c(OC(=O)C(C)(C)C)c1
Potency [19]: inconclusive [inhibitor, full curve]
Potency [1]: inconclusive [inhibitor, partial curve, poor fit]
Potency [16]: active: 0.0098 µM
